According to PubChem BioAssay AID1159614 (National Center for Advancing Translational Sciences (NCATS), 2016):
The whole screen tested about 45,000 compounds, of which about 65 (0.1%) were called active. The call rests on the fitted dose curve; in most records, active means well fitted activation curve with a large enough effect; inconclusive means small, poorly fitted or top-dose-only effect; inactive means no such curve, though single readings can be large or run the other way. The list shows a part of the results.

Each molecule was assayed against Galactocerebrosidase (Homo sapiens) (UniProt P54803) (assay: A Novel Cell-Based Assay to Identify Small Molecules for B -Galactocerebrosidase). Conditions: 145M-Twi-hGALC-G270D cells (Twitcher mouse brain line with human GALC G270D), HMU-beta-Gal fluorescence, 48 h; series mostly up to 57.5 µM; activation: at the top concentration.
Method in brief: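 Mutant human GALC (G270D), stably expressed in a Twitcher mouse brain cell line lacking endogenous GALC, is measured in live-treated cells via 6-hexadecanoylamino-4-methylumbelliferyl-β-galactoside hydrolysis (0.1 mM final, pH 5.2) with fluorescent detection.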
Further: 0% is about no effect; nearly all actives have a fitted effect of over 65% in size.

UniProt P54803, sequence (P54803 whole entry, looked up): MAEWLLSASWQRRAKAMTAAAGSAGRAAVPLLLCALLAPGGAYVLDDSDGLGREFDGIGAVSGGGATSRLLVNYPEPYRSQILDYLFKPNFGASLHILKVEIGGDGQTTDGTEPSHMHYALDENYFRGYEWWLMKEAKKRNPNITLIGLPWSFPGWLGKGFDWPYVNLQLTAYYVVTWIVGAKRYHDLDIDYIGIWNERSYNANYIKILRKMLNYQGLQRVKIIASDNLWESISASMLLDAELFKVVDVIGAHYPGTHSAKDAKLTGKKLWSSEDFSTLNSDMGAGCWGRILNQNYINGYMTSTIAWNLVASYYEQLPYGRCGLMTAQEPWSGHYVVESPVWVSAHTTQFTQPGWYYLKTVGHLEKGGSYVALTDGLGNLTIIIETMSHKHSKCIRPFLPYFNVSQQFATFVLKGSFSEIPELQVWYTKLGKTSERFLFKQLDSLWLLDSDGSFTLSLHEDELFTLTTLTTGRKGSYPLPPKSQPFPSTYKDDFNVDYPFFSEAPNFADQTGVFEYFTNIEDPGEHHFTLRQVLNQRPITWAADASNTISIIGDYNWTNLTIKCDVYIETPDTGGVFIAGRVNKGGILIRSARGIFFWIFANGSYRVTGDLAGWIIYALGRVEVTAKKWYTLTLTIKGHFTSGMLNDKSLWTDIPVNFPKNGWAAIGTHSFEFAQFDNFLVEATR

activation, inactive:
CC(C)Cn1cc(NC(=O)N2CCN(c3ccccc3F)CC2)c2ccccc2c1=O -21.6%
CC1(C)[C@@H]2CC[C@@]1(C)C(=O)C2 -10.6%
Cc1cccc(C)c1Nc1c(-c2ccsc2)nc2ccc(Cl)cn12 -15.6%
Cc1cc(C)nc(NS(=O)(=O)c2ccc(NC(=O)COc3ccc(C(C)(C)C)cc3)cc2)n1 -0.726%
CCOC(=O)CC(NC(=O)N1CCC(CN2CCC(C)CC2)CC1)c1ccccc1 (stereo unspecified) -16%
COc1cc(OC)cc(N2CCN(S(=O)(=O)c3ccc(-n4cnnn4)cc3)CC2)c1 -1.43%
O=c1c(N2CCN(c3cccc(C(F)(F)F)c3)CC2)csc2ccc(Cl)cc12 -10%
Cc1ccccc1CSc1nc2c(sc3ccccc32)c(=O)n1CCCOC(C)C 5.06%
COC(c1ccccc1)(c1ccccc1)[C@H](Oc1nc(C)cc(C)n1)C(=O)O 4.09%
COC(=O)c1cc2oc3ccccc3c2n1Cc1cc(C)ccc1C 6.7%
COc1ccc(OC)c(CCNC(=O)c2cnn(-c3ccccc3)c2C2CCN(C(=O)OC(C)(C)C)CC2)c1 -4.04%
COc1ccc(-c2cn3nc(N4CCCC(C(=O)NCc5ccccc5Cl)C4)sc3n2)cc1 (stereo unspecified) 4.43%
CC(=O)c1cccc(NC(c2ccc(F)cc2)c2nnc(-c3ccccc3)o2)c1 (stereo unspecified) -6.71%
CCSc1nnc2c(n1)OC(CC)N(C(C)=O)c1ccccc1-2 (stereo unspecified) -1.85%
Cc1ccc(-n2nnnc2CNC(=O)C(C)C)cc1C -9.18%
Cc1nn(C)c2c1c(-c1ccccc1)cc(=O)n2C(C)C(=O)NCc1ccc(F)cc1 (stereo unspecified) -9.16%
O=C1CC(c2ccccc2)Cc2[nH]c(=O)c(-c3nc(-c4ccc(Cl)cc4)cs3)cc21 (stereo unspecified) -14%
CCN1CCN(C(c2cccc(F)c2)c2c(O)cc(C)n(Cc3ccco3)c2=O)CC1 (stereo unspecified) -19.6%
O=C(NCc1cccc(F)c1)c1cccc(NC(=O)c2nsc3ccccc23)c1 -16.7%
COc1ccc(OC)c(C2c3c(oc4ccc(C)cc4c3=O)C(=O)N2CCCN(C)C)c1 (stereo unspecified) -8.68%
CCN(Cc1ccccc1)Cc1c(O)ccc2c(=O)c(-c3ccccc3Cl)c(C(F)(F)F)oc12 -30.4%
CCc1ccc(Nc2nc(N)nc(CSc3nc4ccccc4s3)n2)cc1 -13.1%
CCc1ccccc1NS(=O)(=O)c1ccc2c(c1)OCC(C(=O)N1CCCC1)O2 (stereo unspecified) -11.6%
CCCN(CCC)C(=O)CSc1nc2sc3c(c2c(=O)n1-c1ccccc1)CCN(C(C)=O)C3 -8.11%
CCOCc1cc(CN2CCN(c3cccc(Cl)c3)CC2)c(O)c2ncccc12 -11.9%
CC(=O)Nc1cccc(NC(=O)c2c(-c3ccccc3)c(-c3ccccc3)nn(C)c2=O)c1 2.74%
C=Cc1c(C)c2cc3[nH]c(cc4nc(cc5nc(cc1[nH]2)C(C)=C5CCC(=O)O)C(CCC(=O)O)=C4C)c(C)c3C=C -10.5%
O=c1c2c(-c3ccc(Cl)cc3)ccnc2[nH]n1-c1ccccc1 -6.18%
CC(=O)c1ccc(N2CCN(S(=O)(=O)c3ccc4[nH]c5c(c4c3)CCCC5)CC2)cc1 -6.79%
O=C(NCCC1=CCCCC1)c1ccc2c(c1)ncn2-c1ccc(F)c(F)c1 -14.4%
CCOc1ccccc1C1CC(=O)Oc2c1c(=O)n(C)c1ccccc21 (stereo unspecified) -11%
Cc1ccc(Cl)cc1NC(=O)Cn1c(=O)c2ccccc2n2nncc12 -14.7%
CCC(C(=O)Nc1cc(-c2nc3cccnc3s2)ccc1C)c1ccccc1 (stereo unspecified) -9.24%
COc1cccc(CNC(=O)C2CCN(c3nnc(-n4c(C)ccc4C)s3)CC2)c1 -13.3%
Cc1cccc(-n2ncc3c(NC4CCCC4)ncnc32)c1 -13.7%
CCc1ccc(-n2nc3ccc(NC(=O)c4ccc(C#N)cc4F)cc3n2)cc1 4.9%
Fc1ccc(-c2cn3cc(Cc4ccc(Cl)cc4)sc3n2)cc1 -7.81%
CCC(CC)C(=O)Nc1cccc(-c2nc3ccccc3s2)c1 17.4%
CCOc1ccc(-c2nnc(SCC(=O)NCc3ccc(C)cc3)nc2-c2ccc(OCC)cc2)cc1 -8.74%
Cc1ccc(NC(=O)C2CCCN(S(=O)(=O)c3cccc4cccnc34)C2)c(C)c1 (stereo unspecified) -11.6%
Cc1c(CC(=O)NCCc2ccc(Cl)cc2)c(=O)oc2c(C)c3occ(C(C)(C)C)c3cc12 -11.6%
CCOC(=O)c1sc(NC(=O)c2cc(-c3ccc(F)cc3)on2)c(C(=O)OCC)c1C -12.4%
COC(=O)c1ccc2c(=O)n(CCCCCC(=O)N3CCN(c4ccc(OC)cc4)CC3)c(=O)[nH]c2c1 -7.97%
CCOC(=O)CSc1nc2ccc(NC(=O)c3ccccc3F)cc2s1 -1.16%
Cc1ccccc1-c1nc2cc(NC(=O)COc3ccc(F)cc3)ccc2o1 -8.14%
CCOC(=O)c1c(-c2ccccc2)csc1NC(=O)c1cc(-c2ccc(Cl)cc2)on1 -3.71%
CC1=C(C(=O)Nc2ccc(C)cc2C)C(c2ccccc2)n2ncc(C(=O)Nc3ccccc3)c2N1 (stereo unspecified) -5.29%
COC(=O)C1=C(C)NC(C)=C(C(=O)OCCN2CCN(C(c3ccccc3)c3ccccc3)CC2)C1c1cccc([N+](=O)[O-])c1 (stereo unspecified) -17.6%
CCS(=O)(=O)c1nc(S(=O)(=O)c2ccc(Cl)cc2)c(NCc2ccccc2Cl)s1 -25.9%
CCOc1ccc(CNC(=O)c2ccc(Sc3ccc(Cl)cc3)c(NC(C)=O)c2)cc1OC -1.82%
Cc1cc(=O)n2nc(N3CCC(C(=O)Nc4ccc(C)c(Cl)c4)CC3)sc2n1 -2.91%
Cc1ccc(N(Cc2cccs2)C(=O)c2ccc(Br)o2)cc1 11.9%
CCSc1ncc(Cl)c(C(=O)Nc2nc3ccc(OC)cc3s2)n1 -10.5%
COc1ccc(CNC(=O)Cc2c(C)c3c(cc(C)c4c(C)c(C)oc43)oc2=O)cc1 -3.07%
Cc1c(C)c2c(c(C)c1O)CCC(C)(COc1ccc(CC3SC(=O)NC3=O)cc1)O2 (stereo unspecified) -9.69%
CCCCC(CC)CNC(=O)c1ccc2c(=O)n(Cc3ccc(OC)cc3)c(=O)[nH]c2c1 (stereo unspecified) -3.13%
Cn1nc(C(=O)NCc2ccc(Cl)cc2)c2c1-c1ccccc1SC2 -13.2%
CCOc1cc(C2c3c(-c4ccc(Br)cc4)n[nH]c3C(=O)N2c2ccc(Cl)cc2)ccc1O (stereo unspecified) -3.34%
COc1ccc(CNC(=O)CCS(=O)(=O)c2ccc3c(c2)oc(=O)n3C)cc1 -18.6%
CCc1nonc1NC(=O)c1oc2ccccc2c1C -12.7%
Cc1ccc(CNC(=O)c2ccc3c(O)c(S(=O)(=O)c4ccccc4)c(=O)[nH]c3c2)cc1 -26.3%
